The list shows a part of the results.
Each sequence was assayed against T1, OsWOX13 (Oryza sativa, UniProt Q5QMM3 1-267) (assay: protein-binding microarray (RPBM); PBS, 2% BSA, 51.3 ng/ul salmon testes DNA, 50 uM zinc acetate, 200 nM TF, 25 C, 1 h; high values mean tight binding). Details: protein: recombinant; tags: N-terminal polyhistidine and DsRed monomer fusion (pET32a); label: CyDye5-dUTP incorporated in the synthesized complementary strand; 3' TTTTT single-stranded linker to array surface; dsDNA, one strand shown.
T1 sequence: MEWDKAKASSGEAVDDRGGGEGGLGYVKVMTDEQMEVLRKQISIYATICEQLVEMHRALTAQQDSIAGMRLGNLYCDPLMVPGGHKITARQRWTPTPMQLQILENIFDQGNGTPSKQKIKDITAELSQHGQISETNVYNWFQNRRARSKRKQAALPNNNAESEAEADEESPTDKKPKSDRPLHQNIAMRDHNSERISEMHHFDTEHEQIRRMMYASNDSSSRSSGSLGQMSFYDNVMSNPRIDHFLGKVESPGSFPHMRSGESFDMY
Outline: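 Polyhistidine-tagged DsRed fusions of transcription factors, joined at the N-terminus, were expressed in E. coli BL21-CodonPlus and isolated on Ni–NTA. They were incubated at 200 nM for 1 h at 25 °C on a custom Agilent array, double-stranded and BSA-blocked, in PBS with 2% BSA, salmon testes DNA and 50 µM zinc acetate. The binding signal is per-feature fluorescence intensity (arbitrary units) read on an Axon 4000B scanner after washing.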

Compared with “AATCTAAACTCAATCAAGAACCGAATTTTAAAACCCCTTTCGGAGTCACCTAGTGCAG”, “CGTTTGCGATTGATTTCAACCCAAGCAACAATAATCTCGTCGGAGTCACCTAGTGCAG” is higher in binding signal: 8240 fluorescence intensity (a.u.) for the first, 9240 fluorescence intensity (a.u.) for the second.

Going from “AACAAATTGGCAATTTTGGGTGCATAATATGCACACAAAACGGAGTCACCTAGTGCAG” to “TAATATTTAATTGGTTAAACGGTAATGAGTAACCAAATTTCGGAGTCACCTAGTGCAG”, the binding signal rises from 15100 fluorescence intensity (a.u.) to 15700 fluorescence intensity (a.u.).

Compared with “ATCTAGACACTTTCAGATTGAAAATTGTGTATATTTGTACCGGAGTCACCTAGTGCAG”, “AGTAATAAATAAAACTTAATTAATTATTTTAATGGTTTTCCGGAGTCACCTAGTGCAG” is higher in binding signal: 4990 fluorescence intensity (a.u.) for the first, 15200 fluorescence intensity (a.u.) for the second.

First: AGGTTAATCAGCAGTCTACCTCACCTTCTATTTACAATTTCGGAGTCACCTAGTGCAG
Second: CACTAGTATTCAATCACCCAGTTCCAAGAATGCGTTACAGCGGAGTCACCTAGTGCAG
The binding signal of the first is lower: 4160 fluorescence intensity (a.u.) for the first, 9460 fluorescence intensity (a.u.) for the second.

Going from “CTCTGTAACTATATAATTTCGTGCCAGATCGAAACTATGTCGGAGTCACCTAGTGCAG” to “GATGAAATTGGTTTATAGCCTCTCGCTTAATGTTTTCTTTCGGAGTCACCTAGTGCAG”, the binding signal falls from 4040 fluorescence intensity (a.u.) to 3240 fluorescence intensity (a.u.).

Going from “TGTTAATTACATTGGCTAATCAAAATTACAGGGAGAGATTCGGAGTCACCTAGTGCAG” to “AATTCAAATTTTATATAGTTCAATCAAACTCGGATGGAGACGGAGTCACCTAGTGCAG”, the binding signal falls from 29600 fluorescence intensity (a.u.) to 3880 fluorescence intensity (a.u.).

Going from “GAGATTGTAGCGAATTGACAACCTGATGAAGGGATCGATCCGGAGTCACCTAGTGCAG” to “AAAATAGATAATTTTGTATGGGTGCTAATTGCGCGGGCTACGGAGTCACCTAGTGCAG”, the binding signal rises from 13600 fluorescence intensity (a.u.) to 24500 fluorescence intensity (a.u.).

First: CAGGTGACTAATTTGAATGCCGGGGATTATCAGCGCGTGACGGAGTCACCTAGTGCAG
Second: TACAAATTTTGAGTGGACTGTACAAATTTTGCCTTCCAAACGGAGTCACCTAGTGCAG
The binding signal of the first is higher: 23100 fluorescence intensity (a.u.) for the first, 3440 fluorescence intensity (a.u.) for the second.

Compared with “TTTAATTGATCCAAATATGGTCGCGATAATATTTTATTTACGGAGTCACCTAGTGCAG”, “CGCTAAAATTAAAAGTTTGATTGAAATTAGAACGATGTAACGGAGTCACCTAGTGCAG” is higher in binding signal: 28500 fluorescence intensity (a.u.) for the first, 30300 fluorescence intensity (a.u.) for the second.

Compared with “TGTCTCGTTTAATTGGGCCCGGAAACTAAGCCCAAGTGGACGGAGTCACCTAGTGCAG”, “ACAAGATCTCAGTTGGTTATATTCAAGTGAAAGAAAATATCGGAGTCACCTAGTGCAG” is higher in binding signal: 4060 fluorescence intensity (a.u.) for the first, 9670 fluorescence intensity (a.u.) for the second.

First: AACGTGTTAATAGAAATTAAGGTAGAATCTGCATATAATCCGGAGTCACCTAGTGCAG
Second: GTGTTGAATGATAGACTGATAGCTGCGTGCAGCCTCTGAGCGGAGTCACCTAGTGCAG
The binding signal of the first is lower: 4350 fluorescence intensity (a.u.) for the first, 23400 fluorescence intensity (a.u.) for the second.

Going from “CTGGTTCATTTATGCATAATTAGACCTTATCTGGGTCTTACGGAGTCACCTAGTGCAG” to “GTTAATTTTCTCTACCCTTTATTGTTCTGCTGCCTTGTGGCGGAGTCACCTAGTGCAG”, the binding signal rises from 6520 fluorescence intensity (a.u.) to 20800 fluorescence intensity (a.u.).

Compared with “TACTCAATCGCAGCAAATCAATCCACCATCCATCCACGTCCGGAGTCACCTAGTGCAG”, “TTTGTCCATTCATTCATTCTCAATCATTCATGGTGATAATCGGAGTCACCTAGTGCAG” is higher in binding signal: 4630 fluorescence intensity (a.u.) for the first, 5560 fluorescence intensity (a.u.) for the second.

First: GATTAAATTGATCTTAGAACAAACTAAATACTACGAGGTCCGGAGTCACCTAGTGCAG
Second: GTTCTAATTAGTTGCTATATATTGAGATAGAGGGAGTGGTCGGAGTCACCTAGTGCAG
The binding signal of the first is lower: 37200 fluorescence intensity (a.u.) for the first, 49500 fluorescence intensity (a.u.) for the second.

First: AGGATGATTATATATGATAATCAGTTTAGAAATTCTGGTTCGGAGTCACCTAGTGCAG
Second: TTGATGTGACAACAAATTGAAATATACACTTCCATCCAAACGGAGTCACCTAGTGCAG
The binding signal of the first is higher: 44500 fluorescence intensity (a.u.) for the first, 4140 fluorescence intensity (a.u.) for the second.

Compared with “CCCAAAATCATCAATGCAAATTAATCTCCCCTCTTCTTCTCGGAGTCACCTAGTGCAG”, “GAGAGACGGTTTAATCAAGGAGCAGTTGATGGGAGAGGCGCGGAGTCACCTAGTGCAG” is lower in binding signal: 7150 fluorescence intensity (a.u.) for the first, 4550 fluorescence intensity (a.u.) for the second.

Compared with “ATTAATCATGTAAAATTGACGTTACTAGATTTATTATTACCGGAGTCACCTAGTGCAG”, “AGCTGATTAAGGTCCTCCAAGCGAAATCGGAGTCGAGTCTCGGAGTCACCTAGTGCAG” is lower in binding signal: 28300 fluorescence intensity (a.u.) for the first, 5690 fluorescence intensity (a.u.) for the second.

First: TTATAATATATCAATCCGAGTCCTTCATCATTTCTCCATTCGGAGTCACCTAGTGCAG
Second: GTCAGTTTTATTGATGATTATAGTAAATTTACTTGGGTTTCGGAGTCACCTAGTGCAG
The binding signal of the first is lower: 6540 fluorescence intensity (a.u.) for the first, 10400 fluorescence intensity (a.u.) for the second.

Going from “TTTCGTCATTATTTATTTTATTGATCTTTAATTAGTACATCGGAGTCACCTAGTGCAG” to “AACCTAATTACTCATTGTACCCTTTGCATTAATCATGCATCGGAGTCACCTAGTGCAG”, the binding signal rises from 7290 fluorescence intensity (a.u.) to 20100 fluorescence intensity (a.u.).

Compared with “GCTTGACGAGCAGGCAGCAAGAGGATTCGTTCTTCTTCTGCGGAGTCACCTAGTGCAG”, “GATTAGATTGATCATTGATCGATCAGTGCCATTAATTGAGCGGAGTCACCTAGTGCAG” is higher in binding signal: 6260 fluorescence intensity (a.u.) for the first, 30900 fluorescence intensity (a.u.) for the second.

Compared with “CGATTGATGTACCAGTAACAAAGGATTATTACTGTTTACCCGGAGTCACCTAGTGCAG”, “ATGAACATGCAATGATTTATTAACAAATCAAAAGCTAGGACGGAGTCACCTAGTGCAG” is higher in binding signal: 5280 fluorescence intensity (a.u.) for the first, 17700 fluorescence intensity (a.u.) for the second.

Reference: article PMC7819943, “Rice protein-binding microarrays: a tool to detect cis-acting elements near promoter regions in rice”
